From publication PMC6643034 (2019)

Columns and labels:
Assay in all cases: BLI
P1127_IXORI = P1127_IXORI (Ixodes ricinus, UniProt A0A0K8RJ67 29-108)
P1096_IXORI = P1096_IXORI (Ixodes ricinus, UniProt A0A0K8RKE4 24-114)
P1168_IXORI = P1168_IXORI (Ixodes ricinus, UniProt A0A0K8RCU3 25-106)
P1095_IXORI = P1095_IXORI (Ixodes ricinus, UniProt A0A0K8RCE3 24-112)
P1166_IXORI = P1166_IXORI (Ixodes ricinus, UniProt A0A0K8RE99 25-110)
P1229_IXORI = P1229_IXORI (Ixodes ricinus, UniProt A0A0K8R4R9 32-108)
P1128_IXORI = P1128_IXORI (Ixodes ricinus, UniProt A0A0K8R6B3 19-90)
P1162_IXORI = P1162_IXORI (Ixodes ricinus, UniProt A0A0K8RDJ1 29-99)
P1174_IXORI = P1174_IXORI (Ixodes ricinus, UniProt V5I3C5 28-104)
P1132_IXORI = P1132_IXORI (Ixodes ricinus, UniProt V5GZ08 29-106)
P1156_IXORI = target: P1156_IXORI

B1: CXCL8 (ligand)
chain: not shown
- Kd (P1127_IXORI): 13.3 nM
- Kd (P1096_IXORI): 44.7 nM
- Kd (P1168_IXORI): 20.7 nM
- Kd (P1095_IXORI): 110 nM
- Kd (P1166_IXORI): 129 nM
- Kd (P1229_IXORI): 30.7 nM
- Kd (P1128_IXORI): 2.3 nM
- Kd (P1162_IXORI): 12.2 nM
- Kd (P1174_IXORI): 81.7 nM
- Kd (P1132_IXORI): 32.8 nM
- Kd (P1156_IXORI): 2.9 nM
